System: nitric oxide production by macrophages (murine macrophage cell line RAW 264.7)
Test: Nitric oxide production by macrophages
Assay type: cell-based
Details: RAW 264.7 cells stimulated with IFNγ and LPS, 24 hours

For `COc1ccc(C[C@H]2NC[C@H](O)[C@H]2OC(C)=O)cc1` [anisomycin], the IC50 was 68 nM.

— patent publication US20090226500A1, “SUTURES AND ANTI-SCARRING AGENTS” (Angiotech Pharmaceuticals, Inc, priority 2006, published 2009)
